Among all 5,400 compounds or so, about 190 (3.5%) showed an effect of 50% or more. The list shows a part of the results.

This experiment relates to Vero-E6. The experiment in a line: primary screen, phospholipidosis by LipidTOX staining; higher = more effect of the substance. The following applies: 10 µM. A digest of the protocol: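 Single-concentration screen at 10 μM, with DMSO 0.1 v/v % and amiodarone 10 μM as controls. Read-out is LipidTOX Red phospholipid staining, which tolerates aldehyde fixation, in Vero-E6 cells.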
As to `CCCCCCCCC(=O)NCc1ccc(O)c(OC)c1`, the result_ITMP is 4.32%.
Under `CN(Cc1cnc2nc(N)nc(N)c2n1)c1ccc(C(=O)N[C@@H](CCC(=O)O)C(=O)O)cc1` stands -3.08%; under `O=C(COc1ccc(Cl)cc1)N1CCN(Cc2ccc3c(c2)OCO3)CC1`, -5.87%.
Take `CNC(C)CCC=C(C)C` (centres unmarked): the result_ITMP is given as -6.77%.
For the molecule `Cc1ccsc1/C=C/C1=NCCCN1C`, the result_ITMP is given as -4.71%.
Turning to `CCCCCCCCCCCCCCCCOP(=O)([O-])OCC[N+](C)(C)C`, the result_ITMP was found to be 3.31%.
On to `CCCn1c(=O)[nH]c2nc(-c3ccc(S(=O)(=O)O)cc3)[nH]c2c1=O`, for which the result_ITMP is 5.6%.
`CC/C(=C(/c1ccc(/C=C/C(=O)O)cc1)c1ccc2[nH]ncc2c1)c1ccc(F)cc1Cl`: the result_ITMP was -2%.
As to `COc1cc(C(C)=O)ccc1O`, the result_ITMP was -3.65%.
Under `O=C(Nc1cnccc1Cl)N1CCN(Cc2ccc3c(c2)OC(F)(F)O3)CC1` stands -2.58%; under `C[N+](C)(C)CCOC(=O)CCC(=O)OCC[N+](C)(C)C`, 0.96%; under `CSc1ccc(OCc2ncc([N+](=O)[O-])n2C)cc1`, -2.82%.
With `CN1CCN2c3c(cccc31)[C@@H]1CN(CCCC(=O)c3ccc(F)cc3)CC[C@@H]12`, the result_ITMP stood at 19.4%.
As to `Oc1ccc2c(c1)CC[C@H](c1ccccc1)[C@@H]2c1ccc(OCCN2CCCC2)cc1`, the result_ITMP was 21.4%.
As to `CC(=O)/N=c1\sc(S(N)(=O)=O)nn1C`, the result_ITMP is -9.22%.
Regarding `Cc1cnc(NC(=O)c2cc(Oc3cnc(C(=O)N(C)C)nc3)c3cc(C)oc3c2)cn1`, the result_ITMP is listed as -0.82%.
With `C/C(=C\c1ccc(C(=O)O)cc1)c1ccc2c(c1)C(C)(C)CCC2(C)C`, the result_ITMP was -1.89%.
As to `CCCCCCCCCCCCCCCCOc1nc2ccc(C)cc2c(=O)o1`, the result_ITMP is reported as -1.94%.
As for `O=c1[nH]c2ccc(Cl)cc2c(N[C@@H]2CN3CCC2CC3)c1-c1nc2ccccc2[nH]1`, the result_ITMP amounted to 28.6%.
Under `OC(CN1CCN(c2cccc(Cl)c2)CC1)C(c1ccccc1)c1ccccc1` (centres unmarked) stands 5.28%; under `CCn1cc(C(=O)O)c(=O)c2ccc(-c3ccncc3)cc21`, -2.9%.
Turning to `CC/C(=C(/CC)c1ccc(O)cc1)c1ccc(O)cc1`, the result_ITMP is -2.48%.
Under `Cc1nnc(C[C@@H]2C=C(c3ccc(Cl)cc3)c3ccccc3-n3c(C)nnc32)o1` stands -0.73%; under `Nc1nc(OCc2ccccc2)c2nc[nH]c2n1`, -2.86%.
The value for `CCC1(c2ncc[nH]2)Cc2ccccc2O1` (centres unmarked) was -2.25%.
Regarding `CCCS(=O)c1ccc2nc(NC(=O)OC)[nH]c2c1` (centres unmarked), the result_ITMP is reported as 0.62%.
On to `CC(C)(Sc1ccc(CCN(CCCCC2CCCCC2)C(=O)NC2CCCCC2)cc1)C(=O)O`, for which the result_ITMP was -4.42%.
Consider `CC(CN(C)C)CN1c2ccccc2Sc2ccc(C#N)cc21` (centres unmarked), for which the result_ITMP is 42.4%.
On to `CSc1ccc2c(c1)N(CCC1CCCCN1C)c1ccccc1S2` (centres unmarked), for which the result_ITMP is 68.1%.
The value for `CCCC(CCC)C(=O)OC1C[C@H]2CC[C@@H](C1)[N+]2(C)C` (some centres unmarked) was -4.25%; that for `Cc1cc(-c2ccccc2)nnc1NCCN1CCOCC1` was -1.84%.
`CCN(c1cc(C#CCN2CCOCC2)cc(C(=O)NCc2c(C)cc(C)[nH]c2=O)c1C)[C@H]1CC[C@H](N(C)CCOC)CC1`: the result_ITMP is reported as -1.51%.
With `CC(C)(N)C(=O)N[C@H](COCc1ccccc1)C(=O)N1CCC2(CC1)CN(S(C)(=O)=O)c1ccccc12`, the result_ITMP is recorded as 0.41%.
With `OC[C@@H](O)C(O[C@@H]1O[C@H](CO)[C@H](O)[C@H](O)[C@H]1O)[C@H](O)[C@@H](O)CO` (some centres unmarked), the result_ITMP was -8.28%.
For `CC[N+](CC)(CC)CC(=O)Nc1c(C)cccc1C`, the result_ITMP is -7.72%.
`Cc1ccc([N+](=O)[O-])cc1S(=O)(=O)N(C)/N=C/c1cnc2ccc(Br)cn12`: the result_ITMP was -3.07%.
Regarding `COc1cc(-c2ccc(=O)[nH]n2)ccc1OC(F)F`, the result_ITMP is reported as -2.3%.
For `Cc1noc(C)c1-c1ccc(-c2cc(C(N)=O)c(NC(N)=O)s2)c(O[C@H]2CCNC2)c1`, the result_ITMP is reported as -2.49%.
Consider `CC(C)(Sc1ccncc1-c1ccc(C#N)c2ccccc12)C(=O)O`, for which the result_ITMP is -2.29%.
For `CCCCC1(COC(=O)CCC(=O)O)C(=O)N(c2ccccc2)N(c2ccccc2)C1=O`, the result_ITMP was -3.55%.
On to `COc1cc(NC(C)CCCN)c2ncccc2c1` (centres unmarked), for which the result_ITMP was 1.37%.
The value for `Cc1[nH]cnc1-c1ccc(Cl)cc1` was 1.74%.
Take `O=c1[nH]c(=O)n([C@H]2C[C@H](O)[C@@H](CO)O2)cc1Br`: the result_ITMP was determined as 0.31%.
The value for `CC/C=C\C/C=C\C/C=C\C/C=C\C/C=C\C/C=C\CCC(=O)OCC` was 4.73%; that for `Nc1cccc(CNC(=O)c2ccc(Oc3ccc(OCc4cccc(F)c4)cc3)nc2)c1` was -1.49%; that for `NS(=O)(=O)c1cc(-c2nnn[nH]2)c(NCc2cccs2)cc1Cl` was -2.54%.
`CC(=O)CC/C=C(\C)CC/C=C(\C)CC/C=C(\C)CCC=C(C)C`: the result_ITMP is recorded as -7.33%.
On to `Nc1ccc([As](=O)(O)O)cc1`, for which the result_ITMP is 9.57%.
In the case of `CCCCNc1c(C(=O)OCC)c(C)nc2c1cnn2CC`, the result_ITMP was 6.87%.
Take `c1ccc(COCCCc2cnc[nH]2)cc1`: the result_ITMP is listed as -5.1%.
As to `CNCc1cc(-c2ccccc2F)n(S(=O)(=O)c2cccnc2)c1`, the result_ITMP is 8.33%.
Under `c1ccc(CCCN2CCN(CCOC(c3ccccc3)c3ccccc3)CC2)cc1` stands 15%.
Under `CC[C@H](CC[C@@H](C)[C@H]1CC[C@H]2[C@@H]3CC=C4C[C@@H](O[C@@H]5O[C@H](CO)[C@@H](O)[C@H](O)[C@H]5O)CC[C@]4(C)[C@H]3CC[C@]12C)C(C)C` stands 0.41%; under `Cc1nn(C)c2c1C(c1ccc(C(F)(F)F)cc1)C(C#N)=C(N)O2` (centres unmarked), -0.76%; under `Cc1c(I)c(=O)n(-c2ccccc2)n1C`, -2.43%.
As to `Cc1ccccc1C(OCCN(C)C)c1ccccc1` (centres unmarked), the result_ITMP was found to be 25.3%.
Take `Cc1ccc(/C=C2\CNC/C(=C\c3ccc(C)cc3)C2=O)cc1`: the result_ITMP is recorded as 2.54%.
With `O=C1CCc2ccc(OCCCCN3CCN(c4cccc(Cl)c4Cl)CC3)cc2N1`, the result_ITMP was -3.7%.
The value for `CCCCCCCCCCCCCCCC(=O)C(F)(F)F` was -2.15%; that for `CN(C)CCOC(c1ccc(Cl)cc1)c1ccccn1` (centres unmarked) was 2.78%.
For the molecule `Nc1nc2c(ccc3ccccc32)s1`, the result_ITMP is on record as -1.43%.
With `NC(=O)NC1NC(=O)NC1=O` (centres unmarked), the result_ITMP is given as -3.18%.

(Values after paper PMC13083723 (Patterns, 2026).)
